Our source for the binding values is publication PMC3958368.

Protein sequences, listed by entry. Tags and fused reporters are not part of them.
UniProt P0A6R3: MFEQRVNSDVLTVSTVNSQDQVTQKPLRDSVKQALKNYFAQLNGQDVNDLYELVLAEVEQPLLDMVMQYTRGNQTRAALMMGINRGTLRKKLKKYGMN
UniProt P0A9E5: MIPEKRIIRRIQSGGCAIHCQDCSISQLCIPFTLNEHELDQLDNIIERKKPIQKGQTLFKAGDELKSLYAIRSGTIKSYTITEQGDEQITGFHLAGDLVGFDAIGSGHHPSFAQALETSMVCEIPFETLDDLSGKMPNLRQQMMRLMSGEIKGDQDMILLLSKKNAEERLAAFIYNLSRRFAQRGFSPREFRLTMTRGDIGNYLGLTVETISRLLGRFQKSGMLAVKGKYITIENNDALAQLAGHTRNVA
UniProt P00579: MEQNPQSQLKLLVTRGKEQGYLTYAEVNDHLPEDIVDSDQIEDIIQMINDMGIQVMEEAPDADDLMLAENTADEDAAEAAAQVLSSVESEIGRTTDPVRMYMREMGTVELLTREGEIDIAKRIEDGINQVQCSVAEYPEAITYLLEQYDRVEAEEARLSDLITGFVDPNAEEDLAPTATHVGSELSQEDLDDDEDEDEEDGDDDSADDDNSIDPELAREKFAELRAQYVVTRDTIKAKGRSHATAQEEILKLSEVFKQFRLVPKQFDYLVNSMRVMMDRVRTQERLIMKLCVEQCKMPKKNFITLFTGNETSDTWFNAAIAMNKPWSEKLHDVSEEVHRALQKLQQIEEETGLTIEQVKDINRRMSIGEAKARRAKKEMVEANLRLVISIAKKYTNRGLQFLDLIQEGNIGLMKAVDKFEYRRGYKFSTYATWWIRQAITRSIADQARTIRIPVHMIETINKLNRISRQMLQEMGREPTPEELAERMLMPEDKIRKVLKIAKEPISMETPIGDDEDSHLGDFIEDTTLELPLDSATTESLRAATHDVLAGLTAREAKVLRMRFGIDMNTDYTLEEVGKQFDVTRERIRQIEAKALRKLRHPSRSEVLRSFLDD
UniProt P0A7Z4: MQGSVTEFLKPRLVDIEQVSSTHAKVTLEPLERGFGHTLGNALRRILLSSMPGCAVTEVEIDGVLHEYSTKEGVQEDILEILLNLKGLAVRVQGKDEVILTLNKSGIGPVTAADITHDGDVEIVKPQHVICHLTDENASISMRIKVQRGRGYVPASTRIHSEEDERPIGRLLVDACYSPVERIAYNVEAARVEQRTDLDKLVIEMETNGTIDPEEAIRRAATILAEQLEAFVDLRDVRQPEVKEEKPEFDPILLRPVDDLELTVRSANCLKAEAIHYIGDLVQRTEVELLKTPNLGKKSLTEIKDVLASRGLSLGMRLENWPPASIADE

No constants are given. Whether binding was seen depends on the method and setting. Some results given as binding are weak or reduced against the parent protein; the word gives no strength.

Assay in all cases: PING (protein-protein interaction network generation; microfluidic mechanical trapping); bait and prey coexpressed by ITT in a chip chamber (2 hours at 30°C); bait immobilised under the button by biotinylated T7-epitope antibody; prey detected by Alexa-Fluor-647 penta-His antibody; PBS …; three trials, six replicates each; detected if p≤0.01 against baitless spots in at least one trial; no E. coli promoter DNA

For one test, the target named is fis, PING bait (E. coli) (UniProt P0A6R3).
In the next test the target is T1, lrp, PING bait (E. coli) (UniProt P0ACJ0).
T1 sequence: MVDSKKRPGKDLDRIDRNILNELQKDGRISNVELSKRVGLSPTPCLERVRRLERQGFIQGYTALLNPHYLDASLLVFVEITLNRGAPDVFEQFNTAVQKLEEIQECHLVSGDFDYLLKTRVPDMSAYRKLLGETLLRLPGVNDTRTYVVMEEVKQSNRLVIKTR

In test [1] the target is T2, rhaS, PING bait (E. coli) (UniProt P09377).
T2 sequence: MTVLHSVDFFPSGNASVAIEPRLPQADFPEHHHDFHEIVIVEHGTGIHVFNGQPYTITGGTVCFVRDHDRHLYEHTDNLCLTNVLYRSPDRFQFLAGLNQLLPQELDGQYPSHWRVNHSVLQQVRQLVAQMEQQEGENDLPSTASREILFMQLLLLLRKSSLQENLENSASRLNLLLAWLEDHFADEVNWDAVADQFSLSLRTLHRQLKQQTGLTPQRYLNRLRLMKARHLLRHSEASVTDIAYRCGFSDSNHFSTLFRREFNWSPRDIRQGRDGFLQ

The target in the next test is T3, rsd, PING bait (E. coli) (UniProt P0AFX4).
T3 sequence: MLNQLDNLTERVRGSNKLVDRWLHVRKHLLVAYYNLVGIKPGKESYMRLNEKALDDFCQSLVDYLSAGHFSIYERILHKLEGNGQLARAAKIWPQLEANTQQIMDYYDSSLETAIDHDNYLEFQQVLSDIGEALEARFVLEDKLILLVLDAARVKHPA

Test [2] concerns the target T4, arcA, PING bait (E. coli) (UniProt P0A9Q1).
T4 sequence: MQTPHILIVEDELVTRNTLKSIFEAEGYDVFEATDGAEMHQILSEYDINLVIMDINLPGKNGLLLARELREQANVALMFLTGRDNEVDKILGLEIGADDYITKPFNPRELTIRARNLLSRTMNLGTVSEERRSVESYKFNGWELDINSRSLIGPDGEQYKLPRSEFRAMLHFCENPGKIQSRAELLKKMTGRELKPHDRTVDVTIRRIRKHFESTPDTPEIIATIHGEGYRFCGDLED

A further test deals with fnr, PING bait (E. coli) (UniProt P0A9E5).
For test [3], the target named is T5, marA, PING bait (E. coli) (UniProt P0ACH5).
T5 sequence: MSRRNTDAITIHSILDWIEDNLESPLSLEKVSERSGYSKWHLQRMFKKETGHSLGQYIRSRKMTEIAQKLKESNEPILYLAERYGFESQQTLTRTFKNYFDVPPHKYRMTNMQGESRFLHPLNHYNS

With “E. coli RNA polymerase major σ factor σ^70 (rpoD) (from UniProt P00579 1-613)”, the binding result with fis, PING bait (E. coli) is “binds”; with lrp, PING bait (E. coli), “binds”; in test [1], “no binding”; in the test with rsd, PING bait (E. coli) it was “binds”.

With “E. coli RNA polymerase α subunit (rpoA) (from UniProt P0A7Z4 1-329)”, the binding entry in test [2] is “binds”; in the test with fis, PING bait (E. coli) it was “binds”; with fnr, PING bait (E. coli), “no binding”; in the test with lrp, PING bait (E. coli), “binds”; in test [3], “binds”; with rsd, PING bait (E. coli), “no binding”.
